# Experimental data published in PubChem BioAssay AID1347073 (National Center for Advancing Translational Sciences (NCATS), 2019).
# Screen size: about 45,000 compounds; about 200 (0.44%) were called active. Not shown: some 7% with an inconclusive outcome. The call rests on the fitted dose curve; in most records, active means well fitted activation curve with a large enough effect; inconclusive means small, poorly fitted or top-dose-only effect; inactive means no such curve, though single readings can be large or run the other way. This is one part of the list.
# Assay: qHTS of TDP-43 Inhibitors: NCGC Sytravon Library Screen; further: 0% is about no effect; nearly all actives have a fitted effect of over 55% in size
# Details: yeast TDP-43 toxicity rescue, BacTiter-Glo growth, 24 h; series mostly up to 46.1 µM; growth rescue (activation): at the top concentration
# Outline: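 TDP-43-expressing yeast, pregrown in raffinose, seeded at OD600 0.02 in galactose medium with compound for 24 hr at 30 deg C. Growth read by BacTiter-Glo luminescence, so rescue of toxicity appears as activation.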
row,SMILES,growth rescue (activation)
1,COc1cccc(NC(=O)CC(=O)c2ccccc2)c1,inactive: 20.4%
2,O=C1N=c2ccccc2=C1c1sc(NS(=O)(=O)c2ccccc2)nc1O,inactive: -8.34%
3,CC(C)(C)c1ccc(S(=O)(=O)N(CCCN2CCOCC2)Cc2cccs2)cc1,inactive: -15.5%
4,O=C(O)C1CC(O)CN1S(=O)(=O)c1cccs1 (centres undefined),inactive: 17%
5,Cc1[nH]ccc(=O)c1Oc1ncc(C(F)(F)F)cc1Cl,inactive: 9.32%
6,O=C(CSc1n[nH]c(=O)[nH]c1=O)N/N=C/c1ccccc1O,inactive: 27.1%
7,CCNC(=S)N1CCN(CC(=O)Nc2ccc(Br)cc2)CC1,inactive: 9.27%
8,COCCCC1CCN(Cc2nc(Cc3ccccc3Cl)no2)CC1,inactive: 2.14%
9,CCN(CC)S(=O)(=O)c1ccc(C(=O)OCC(=O)Nc2ccc(-c3nc4ccc(C)cc4s3)cc2)cc1,inactive: -4.39%
10,CCc1ccc(N(C(=O)CCC(=O)Nc2cc(C)on2)C(C(=O)NC(C)(C)C)c2ccc(OC)cc2)cc1 (centres undefined),inactive: -9.01%
11,COc1ccc(C(=O)CSc2nc3ccc([N+](=O)[O-])cc3[nH]2)cc1,inactive: 8.98%
12,COc1cc([N+](=O)[O-])cc(/C=N/NC(=O)c2ccc(C)nc2)c1O,inactive: 23.7%
13,Cc1c(C(=O)N(Cc2ccc(N(C)C)cc2)C2CCS(=O)(=O)C2)oc2ccccc12 (centres undefined),inactive: 8.05%
14,Cn1c(=N)n(CC(O)c2ccccc2)c2ccccc21 (centres undefined),inactive: 4.61%
15,COc1ccccc1-c1cc(C(=O)N2CCCC2)no1,inactive: 7.37%
16,NS(=O)(=O)c1ccc(CNC(=O)Cc2c(F)cccc2Cl)cc1,inactive: 21%
17,CCOC(=O)c1c(C)[nH]c(C(=O)OCc2ccccc2F)c1C,inactive: 8.14%
18,O=C(c1ccc2c(c1)N(Cc1ccccc1)C(=O)c1ccccc1S2(=O)=O)N1CCN(c2ccccc2)CC1,inactive: 5.94%
19,COc1ccc(CCNC(=O)c2cc(-c3cc(C)ccc3O)n[nH]2)cc1OC,inactive: 10.9%
20,COC(=O)Cn1nc(C)c2c(C)n(-c3ccccc3)nc2c1=O,inactive: 5.23%
21,CC(C)COC(=O)N1CCCCC1c1cc(C(=O)NCc2cccnc2)no1 (centres undefined),inactive: 9.44%
22,Cc1cc(/C=N/n2cnnc2)c(O)c([N+](=O)[O-])c1,inactive: 32.5%
23,CC(C)c1nc(N2CCN(C(=O)c3ccco3)CC2)c(C#N)c2c1COC(C)(C)C2,inactive: 25.1%
24,COCCSc1nnc(NS(=O)(=O)c2ccccc2)s1,inactive: 1.23%
25,NC(=O)c1cccc(-c2ccnc3c2CC(C(=O)NCc2ccc(F)c(F)c2)O3)c1 (centres undefined),inactive: 6.33%
26,O=C(O)c1ccc(Sc2ccccn2)c([N+](=O)[O-])c1,inactive: 3.54%
27,O=c1c2ccccc2cnn1Cc1n[nH]c(=S)n1-c1cc(Cl)cc(Cl)c1,inactive: 9.49%

row,SMILES,growth rescue (activation)
1,COc1ccc(F)cc1C(=O)C1CCCN(Cc2cn(C)c3ccccc23)C1 (centres undefined),inactive: -23.1%
2,COc1cccc(N2CCN(CC(=O)NC(=O)NC3CCCCC3)CC2)c1,inactive: 14.8%
3,Cc1ccc(CNS(=O)(=O)NCc2ccccc2)cc1,inactive: 3.75%
4,O=C(Cn1cnc2ccccc2c1=O)Nc1nnc(C2CC2)s1,inactive: 13.1%
5,CCn1ncc(NC(=S)Nc2ccc3c(c2)OCO3)c1C(N)=O,inactive: 11.7%
6,CC1CCC/C(=C\Nc2ccc(C(=O)O)cc2)C1=O (centres undefined),inactive: 12.5%
7,COc1cc(OC)c(OC)cc1CNCCNC(=O)c1ccco1,inactive: -7.5%
8,CCOC(=O)CSc1ccc2nnc(CCNS(=O)(=O)c3ccccc3)n2n1,inactive: 4.21%
9,C=CCn1c(SCC(=O)Nc2sc3c(c2C#N)CCC(C)C3)nc2cc(C(=O)O)ccc2c1=O (centres undefined),inactive: -17.7%
10,COc1ccc(-c2cc(C(=O)N/N=C(\C)c3cccnc3)c3ccccc3n2)cc1,inactive: 5.6%
11,CCc1nc2ccc(C(=O)NCc3ccc4c(c3)OCO4)cn2c1N(C)CCC(C)C,inactive: 0.746%
12,O=C(Nc1ccc2[nH]c(=O)[nH]c2c1)c1c(F)c(F)c(F)c(F)c1F,inactive: 5.53%
13,O=C(NCc1ccccc1)c1cc(C2CCCCN2S(=O)(=O)Cc2ccccc2)on1 (centres undefined),inactive: 22.6%
14,O=C(Nc1cc(NC(=O)c2ccccc2F)ccc1Cl)c1ccccc1,inactive: -12.1%
15,CCCC(=O)N1CCCC1(C)C(=O)Nc1ccc(OC(F)F)cc1 (centres undefined),inactive: 7.75%
16,O=C(NCC1CCCO1)c1ccc(C(=O)NCC2CCCO2)cc1 (centres undefined),inactive: -0.51%
17,COc1cc(C)c(NC(=S)Nc2cccc(Cl)c2C)cc1OC,inactive: 16%
18,CC(=O)N1C(C)(C)CC(=NOC(=O)c2ccccc2)CC1(C)C,inactive: 19%
19,O=S(=O)(c1ccccc1)c1ncc(C(F)(F)F)cc1O,inactive: 3.46%
20,N#CN=C(c1ccccc1)c1ccccc1,inactive: -8.43%
21,COc1ccccc1OCCC(=O)OCC(=O)Nc1cc(S(=O)(=O)N(C)C)ccc1Cl,inactive: 9.41%
22,COc1cc(-c2noc(CCC(=O)NC3CCCC3)n2)cc(OC)c1OC,inactive: -13.5%
23,CC1=NN(C(N)=S)C(=O)C1N=Nc1cc(Cl)ccc1Cl (centres undefined),inactive: 33.6%
24,COc1ccc(NC(=O)C2(C)CCCN(C(C)C)C2)cc1OC (centres undefined),inactive: 4.56%
25,CC1CC(C)CN(CC(=O)c2c[nH]c3ccccc23)C1 (centres undefined),inactive: 11.7%
26,Cc1ccc(C(=O)NC2CCN(C(=O)Nc3ccccc3)CC2)cc1,inactive: -7.52%
27,O=C(CCn1cnnn1)Nc1ccc(F)cc1,inactive: 0.0189%
